# Experimental data from PubChem BioAssay (NCATS).
# Several values for one entry are separate records, joined by “and”; a condition that tells them apart may be missing. Equal values may be shown once. Inconclusive results, whose numbers are uncertain, are shown with a selection of clear calls. For some of these results: A potency beside an inconclusive call is a rough fit, not a confirmed value. Activity calls are given as the source filed them. Unless noted, calls follow the shape of the dose curve; as a rule, active = well fitted curve in the direction sought with a large enough effect; inconclusive = small, poorly fitted or top-dose-only effect, or another doubt; inactive = no such curve, though single readings can be large; an effect the other way counts as inactive or inconclusive.
# How the values were obtained:
# [1] = NFAT Signaling Pathway (AID 444; active = well fitted curve in either direction with a large enough effect, not every such curve was filed as active; inconclusive = small, poorly fitted or top-dose-only effect, or another doubt;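 also: carbachol stimulus at about its EC50 of 1 µM final; % is scaled to controls: 0 for no effect and ±100 for the full control effect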); conditions: Jurkat NFAT-bla M1, carbachol, beta-lactamase ratio, 5 h
# How it was run: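 Jurkat cells carrying an NFAT-driven β-lactamase reporter and co-transfected muscarinic M1 receptor were treated with compound plus carbachol (1 uM final, an EC50 level) for 5 h at 37 °C. CCF4 loading followed for 1 h at RT; 460/530 nm ratio gave %activity.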
# [2] = Primary qHTS for small molecule stabilizers of the endoplasmic reticulum resident proteome: Secreted ER Calcium Modulated Protein (SERCaMP) assay (AID 1508630); conditions: SH-SY5Y GLuc-SERCaMP (Gaussia luciferase released on ER calcium loss) secretion, thapsigargin, luminescence; activity change, negative = inhibition: at 38.4 µM (top of the series) unless noted; also: potency is read from the fitted curve at half-maximal effect; as to activity change, negative = inhibition: % is scaled to controls: 0 for no effect and ±100 for the full control effect
# How it was run: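 The SH-SY5Y reporter protocol was run at 3 concentrations up to 38.3 uM (primary) or 11 concentrations (follow-up): 16 h compound, 100 nM thapsigargin for 4 h, then extracellular luciferase luminescence.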
# [3] = target: Cytochrome P450 1A2 (Homo sapiens) (UniProt P05177); experiment: p450-cyp1a2 (AID 410; calls by dose curve; also: potency is read from the fitted curve at half-maximal effect); conditions: recombinant CYP1A2, luciferin-ME demethylation, luminescence; series mostly up to 57 µM
# UniProt P05177, sequence (P05177 whole entry, looked up): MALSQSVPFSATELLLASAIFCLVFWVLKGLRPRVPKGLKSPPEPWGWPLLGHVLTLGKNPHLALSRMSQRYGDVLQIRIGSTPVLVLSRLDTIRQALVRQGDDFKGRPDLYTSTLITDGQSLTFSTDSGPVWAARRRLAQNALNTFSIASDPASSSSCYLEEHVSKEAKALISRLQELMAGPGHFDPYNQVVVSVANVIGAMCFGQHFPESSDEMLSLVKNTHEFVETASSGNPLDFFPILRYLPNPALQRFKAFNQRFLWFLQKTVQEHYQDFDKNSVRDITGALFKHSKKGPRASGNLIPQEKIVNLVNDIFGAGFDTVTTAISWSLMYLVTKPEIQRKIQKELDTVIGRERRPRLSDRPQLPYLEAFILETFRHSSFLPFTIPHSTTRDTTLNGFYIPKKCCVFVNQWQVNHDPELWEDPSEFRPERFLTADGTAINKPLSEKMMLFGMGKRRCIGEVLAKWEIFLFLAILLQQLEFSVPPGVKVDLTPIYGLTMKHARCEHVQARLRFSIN
# How it was run: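 O-Demethylation of luciferin 6' methyl ether by human CYP1A2 is monitored as luciferase luminescence. Substrate sits at Km (100uM); enzyme is 20nM. Values are scaled to 57 uM furafylline as maximal inhibition.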
# [4] = target: 3',5'-cyclic-AMP phosphodiesterase 4B (Homo sapiens) (UniProt Q07343); experiment: qHTS Assay for Inhibitors of PDE-IV (AID 607; active = well fitted activation curve with a large enough effect in the main read-out, with a control signal flat, not every such curve was filed as active; inconclusive = small, poorly fitted or top-dose-only effect, or effect the other way, or a change in a side signal; also: potency is read from the fitted curve at half-maximal effect); conditions: HEK293 ACTOne CNG channel cells, membrane potential fluorescence; activation (PDE inhibition): at 22.9 µM (top of the series)
# UniProt Q07343, sequence (Q07343 whole entry, looked up): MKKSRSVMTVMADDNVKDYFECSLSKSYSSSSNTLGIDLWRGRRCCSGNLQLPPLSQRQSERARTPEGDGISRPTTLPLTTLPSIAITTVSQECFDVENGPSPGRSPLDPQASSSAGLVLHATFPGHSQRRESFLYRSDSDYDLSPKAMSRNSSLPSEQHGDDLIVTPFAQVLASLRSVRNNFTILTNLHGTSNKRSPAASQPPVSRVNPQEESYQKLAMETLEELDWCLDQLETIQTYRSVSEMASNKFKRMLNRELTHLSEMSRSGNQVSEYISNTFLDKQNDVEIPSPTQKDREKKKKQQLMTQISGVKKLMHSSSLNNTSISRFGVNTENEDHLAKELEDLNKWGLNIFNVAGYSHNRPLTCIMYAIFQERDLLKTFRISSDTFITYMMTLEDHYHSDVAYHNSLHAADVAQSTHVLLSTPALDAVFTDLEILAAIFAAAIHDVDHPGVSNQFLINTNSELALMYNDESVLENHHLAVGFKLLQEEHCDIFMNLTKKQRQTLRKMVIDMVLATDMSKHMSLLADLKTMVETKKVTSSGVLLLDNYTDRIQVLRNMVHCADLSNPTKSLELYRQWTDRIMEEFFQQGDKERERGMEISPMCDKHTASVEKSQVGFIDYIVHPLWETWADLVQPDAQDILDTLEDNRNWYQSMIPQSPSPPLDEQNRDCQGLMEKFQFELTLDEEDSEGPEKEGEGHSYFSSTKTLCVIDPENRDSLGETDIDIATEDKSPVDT
# How it was run: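 The readout is membrane depolarisation from a cAMP-sensing CNG channel, detected with a potential dye at ex 535/em 590. Cells were HEK293-derived (endogenous PDE-IV) at 1000 cells/well, titrated up to 22.9 uM final.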
# [5] = target: Cytochrome P450 2D6 (Homo sapiens) (UniProt P10635); experiment: qHTS Assay for Inhibitors and Substrates of Cytochrome P450 2D6 (AID 891); conditions: recombinant CYP2D6, luciferin-ME EGE luminescence; series mostly up to 57.1 µM;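 also: luciferin methyl ether substrate demethylated by CYP2D6 with NADPH regeneration; potency is read from the fitted curve at half-maximal effect; nearly all actives have a fitted effect of over 60% in size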
# UniProt P10635, sequence (P10635 whole entry, looked up): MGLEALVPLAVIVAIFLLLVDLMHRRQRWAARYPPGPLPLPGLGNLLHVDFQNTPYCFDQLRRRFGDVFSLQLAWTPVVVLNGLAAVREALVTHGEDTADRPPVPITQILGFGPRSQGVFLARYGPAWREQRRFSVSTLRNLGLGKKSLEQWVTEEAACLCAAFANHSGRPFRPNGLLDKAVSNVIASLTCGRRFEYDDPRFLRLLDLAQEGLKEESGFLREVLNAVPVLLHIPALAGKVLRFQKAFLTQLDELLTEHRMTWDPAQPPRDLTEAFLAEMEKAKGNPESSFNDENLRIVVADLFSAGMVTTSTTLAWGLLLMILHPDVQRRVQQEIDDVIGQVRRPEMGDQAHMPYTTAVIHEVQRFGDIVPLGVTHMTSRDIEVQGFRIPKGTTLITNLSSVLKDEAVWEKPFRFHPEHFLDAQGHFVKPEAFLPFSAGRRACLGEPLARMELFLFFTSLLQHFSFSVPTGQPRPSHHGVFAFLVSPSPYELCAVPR
# How it was run: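 Luminescent read-out of luciferin formed by 5 nM human CYP2D6 demethylating 30 uM Luciferin-ME EGE (Km level) over 60 min at room temperature after NADPH regeneration addition. Data normalized to full inhibition by 1.43 uM quinidine.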
# [6] = Stat Signaling Pathway (AID 446; active = well fitted curve in either direction with a large enough effect, not every such curve was filed as active; inconclusive = small, poorly fitted or top-dose-only effect, or another doubt;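 also: ME-180 cervical cancer cells given 40 pM IL-6 alongside compound; SIE-controlled beta-lactamase reporter measured as 460/530 nm FRET emission ratio; top concentration of the series differs between compounds; % is scaled to controls: 0 for no effect and ±100 for the full control effect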); conditions: ME-180 SIE beta-lactamase reporter, IL-6 stimulated, 5 h; at 7.69 µM (top of the series) unless noted
# How it was run: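 Emission at 460 and 530 nm (excitation 405 nm) reports SIE-controlled beta-lactamase in ME-180 cells. Cells received compound with 40 pM IL-6 for 5 hrs at 37 C; data scaled between 300 pM IL-6 and 125 nM JAK-inhibitor controls.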
# [7] = target: Mitogen-activated protein kinase 10 (Mus musculus) (UniProt Q61831); experiment: JNK3 AlphaScreen Assay (AID 530; active = well fitted curve in either direction with a large enough effect, not every such curve was filed as active; inconclusive = small, poorly fitted or top-dose-only effect, or another doubt;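 also: kinase came from lysate of stimulated human HepG2 cells; signal reports phosphorylation of biotinylated GST-cJun 1-79 at Ser73 with 10 µM ATP; potency is read from the fitted curve at half-maximal effect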); conditions: JNK3 lysate, c-Jun phosphorylation; activity change, negative = inhibition: at 57.1 µM (top of the series)
# How it was run: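 Phosphorylation of biotinylated GST-cJun(1-79) at Ser73 is measured by AlphaScreen proximity luminescence. Enzyme is JNK3 in HepG2 lysates activated with interleukin-1beta and tumor necrosis factor alpha; ATP is 10 uM final.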
# [8] = target: Cytochrome P450 2C9 (Homo sapiens) (UniProt P11712); experiment: qHTS Assay for Inhibitors and Substrates of Cytochrome P450 2C9 (AID 883); conditions: recombinant CYP2C9, luciferin-H luminescence, 60 min; series mostly up to 57.1 µM; also: potency is read from the fitted curve at half-maximal effect; nearly all actives have a fitted effect of over 60% in size
# UniProt P11712, sequence (P11712 whole entry, looked up): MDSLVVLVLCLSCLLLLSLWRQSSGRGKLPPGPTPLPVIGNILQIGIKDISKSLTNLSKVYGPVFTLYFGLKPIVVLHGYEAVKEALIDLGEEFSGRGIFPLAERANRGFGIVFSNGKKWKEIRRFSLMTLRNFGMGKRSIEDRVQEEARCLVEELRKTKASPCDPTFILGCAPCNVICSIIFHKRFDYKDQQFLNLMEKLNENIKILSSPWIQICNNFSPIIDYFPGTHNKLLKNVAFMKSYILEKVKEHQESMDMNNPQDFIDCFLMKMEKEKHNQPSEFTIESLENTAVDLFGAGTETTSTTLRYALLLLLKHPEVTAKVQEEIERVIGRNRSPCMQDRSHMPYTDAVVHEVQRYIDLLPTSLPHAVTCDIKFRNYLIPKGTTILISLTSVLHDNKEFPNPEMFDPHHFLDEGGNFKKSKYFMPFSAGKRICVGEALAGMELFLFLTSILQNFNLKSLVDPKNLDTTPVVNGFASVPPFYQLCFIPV
# How it was run: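 Human CYP2C9 (10nM) hydroxylated Luciferin-H (100uM, at its KM) to luciferin in 25mM KPO4. Compound was preincubated 10 min at 37C, then NADPH regeneration started a 60 min reaction at 37C. Luminescence was read after detection reagent, normalized to 57uM sulphaphenazole.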
# [9] = qHTS Assay for Identification of Small Molecule Agonists for Hypoxia Response Element Signaling Pathway (AID 914; active = well fitted activation curve with a large enough effect in the signal ratio, with a control signal flat, not every such curve was filed as active; inconclusive = small, poorly fitted or top-dose-only effect, or effect the other way, or a change in a side signal; the % refers to the signal ratio; also: potency is read from the fitted curve at half-maximal effect); conditions: ME-180 HRE-bla reporter, beta-lactamase ratio, CoCl2, 17 h; activation: active compounds read high
# How it was run: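 ME-180 cells carrying an HRE-driven beta-lactamase reporter were treated with compounds in a titration series plus an EC50 level of CoCl2 for 17 h at 37 degrees Celsius; CCF4 readout as the 460nm/530nm ratio gave AC50 values.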
# [10] = target: Ubiquitin carboxyl-terminal hydrolase 1 (Homo sapiens) (UniProt O94782); experiment: Inhibitors of USP1/UAF1: Pilot qHTS (AID 504865); conditions: purified USP1/UAF1, Ub-rhodamine cleavage fluorescence; series mostly up to 54.9 µM; also: potency is read from the fitted curve at half-maximal effect;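 also: rhodamine fluorescence freed from ubiquitin-rhodamine substrate followed over time; nearly all actives have a fitted effect of over 35% in size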; as to activity change, negative = inhibition: top concentration of the series differs between compounds; % is scaled to controls: 0 for no effect and ±100 for the full control effect
# UniProt O94782, sequence (O94782 whole entry, looked up): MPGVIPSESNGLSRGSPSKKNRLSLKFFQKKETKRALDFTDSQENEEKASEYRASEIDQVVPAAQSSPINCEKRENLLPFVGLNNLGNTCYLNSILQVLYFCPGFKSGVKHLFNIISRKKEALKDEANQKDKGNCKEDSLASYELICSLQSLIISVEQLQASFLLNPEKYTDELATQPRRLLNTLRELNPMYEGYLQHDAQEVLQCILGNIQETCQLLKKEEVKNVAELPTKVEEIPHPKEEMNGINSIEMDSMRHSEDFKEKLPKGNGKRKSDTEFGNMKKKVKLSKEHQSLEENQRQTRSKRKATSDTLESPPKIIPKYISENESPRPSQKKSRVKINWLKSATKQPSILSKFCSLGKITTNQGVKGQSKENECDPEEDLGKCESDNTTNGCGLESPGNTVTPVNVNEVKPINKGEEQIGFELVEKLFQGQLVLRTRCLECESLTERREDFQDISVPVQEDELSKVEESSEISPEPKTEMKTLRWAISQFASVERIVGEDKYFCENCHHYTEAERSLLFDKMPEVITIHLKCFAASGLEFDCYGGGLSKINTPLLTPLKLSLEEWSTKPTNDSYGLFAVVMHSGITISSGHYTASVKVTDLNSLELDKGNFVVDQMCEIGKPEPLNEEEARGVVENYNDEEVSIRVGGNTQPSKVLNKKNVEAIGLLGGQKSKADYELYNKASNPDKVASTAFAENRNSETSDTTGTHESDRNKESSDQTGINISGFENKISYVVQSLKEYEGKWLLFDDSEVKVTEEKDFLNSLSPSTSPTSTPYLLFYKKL
# How it was run: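 USP1/UAF1 complex at 1 nM preincubated 15 min at room temperature with compound, then Ub-Rho substrate added at 150 nM final. Fluorescence (480/540 nm) read kinetically in 50 mM HEPES pH 7.8, 0.5 mM EDTA, 1 mM TCEP, 0.1 mg/ml BSA, 0.01% Tween-20.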
# [11] = target: Cytochrome P450 2C19 (Homo sapiens) (UniProt P33261); experiment: qHTS Assay for Inhibitors and Substrates of Cytochrome P450 2C19 (AID 899); conditions: recombinant CYP2C19, luciferin-H EGE luminescence; series mostly up to 57.1 µM; also: top concentration of the series differs between compounds; % is scaled to controls: 0 for no effect and ±100 for the full control effect; nearly all actives have a fitted effect of over 60% in size
# UniProt P33261, sequence (P33261 whole entry, looked up): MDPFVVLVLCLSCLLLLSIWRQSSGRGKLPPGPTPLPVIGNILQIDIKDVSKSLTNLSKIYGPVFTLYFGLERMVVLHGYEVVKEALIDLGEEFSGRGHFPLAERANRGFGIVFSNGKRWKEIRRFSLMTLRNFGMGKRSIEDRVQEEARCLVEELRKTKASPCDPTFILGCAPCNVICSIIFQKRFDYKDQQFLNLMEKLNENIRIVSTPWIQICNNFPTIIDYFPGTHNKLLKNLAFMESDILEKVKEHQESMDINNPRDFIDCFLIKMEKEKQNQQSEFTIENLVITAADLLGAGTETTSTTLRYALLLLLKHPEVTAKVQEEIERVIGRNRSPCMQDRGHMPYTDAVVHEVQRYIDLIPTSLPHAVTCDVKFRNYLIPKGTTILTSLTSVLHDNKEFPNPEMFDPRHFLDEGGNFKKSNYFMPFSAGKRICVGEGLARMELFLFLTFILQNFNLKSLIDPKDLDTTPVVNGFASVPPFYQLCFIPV
# How it was run: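 Human CYP2C19 (5nM) with Luciferin-H EGE at 10uM (its KM) in 50mM KPO4 was preincubated with compound for 10 min at 37C. NADPH regeneration started a 60 min 37C reaction. Luciferin was read by luminescence, normalized to 57uM ketoconazole.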
# [12] = at 7.69 µM (top of the series) unless noted
# Tags tell the direction and shape of the fitted curve or compound fluorescence and quenching.
compound,measurement,setting,value
O=C(c1cc(C(F)(F)F)cc(C(F)(F)F)c1)N1CCC2(CCCN(Cc3ccccc3)C2)CC1,"activity change, negative = inhibition",[1]; [12],inconclusive: -82% [inhibitor]
same,Potency,[2],inactive
Cc1c(C2CCN(CCc3ccccc3)CC2)noc1-c1ccc(Cl)cc1,Potency,[3],inconclusive: 25.1 µM [decreasing]
same,Potency,[4],"inconclusive: 3.01 µM [activator, partial curve, poor fit]"
same,Potency,[5],"inconclusive: 1.58 µM [inhibitor, full curve]"
same,Potency,[2],"inconclusive: 11.2 µM [inhibitor, single point] and inconclusive: 20 µM [inhibitor, single point]"
COCCn1c(=O)c(-c2cccs2)nc2cnc(Oc3ccccc3)nc21,"activity change, negative = inhibition",[1]; [12],inconclusive: 27.5% [activator]
same,"activity, negative = inhibition",[6],inconclusive: 46% [activator]
same,Potency,[7],"inconclusive: 15.8 µM [activator, partial curve]"
same,Potency,[8],active: 3.98 µM
same,Potency,[9],active: 3.16 µM
same,Potency,[2],"inconclusive: 28.2 µM [inhibitor, single point]"
c1ccc2c(N3CCNCC3)nc(-c3ccoc3)nc2c1,"activity change, negative = inhibition",[1]; [12],inactive: -11.1%
same,Potency,[4],"inconclusive: 12.6 µM [activator, partial curve]"
same,Potency,[10],"inconclusive: 50.1 µM [inhibitor, partial curve]"
same,Potency,[2],"inconclusive: 28.2 µM [inhibitor, single point]"
CN(Cc1ccco1)c1nc(-c2cccc(C#N)c2)nc2ccccc12,"activity change, negative = inhibition",[1]; [12],inconclusive: -36.9% [inhibitor]
same,Potency,[7],"inconclusive: 25.1 µM [activator, partial curve]"
same,Potency,[4],"inconclusive: 10 µM [rising, partial curve]"
same,Potency,[10],"inconclusive: 35.5 µM [inhibitor, partial curve]"
same,Potency,[2],"inconclusive: 28.2 µM [inhibitor, single point]"
COCCn1c(=O)c(-c2ccc(OC)cc2)nc2cnc(N3CCN(C)CC3)nc21,"activity change, negative = inhibition",[1]; [12],inconclusive: 54.9% [activator]
same,"activity, negative = inhibition",[6],inconclusive: 78.8% [activator]
same,Potency,[9],active: 3.16 µM
same,Potency,[2],"inconclusive: 25.1 µM [inhibitor, single point]"
CC(C)CN1CCC2(CC1)CCN(C(=O)c1cc(C(F)(F)F)cc(C(F)(F)F)c1)CC2,"activity change, negative = inhibition",[1]; [12],inconclusive: -65.9% [inhibitor]
same,Potency,[2],inactive
COc1ccc(CCN(C)CCC[C@@](C#N)(c2ccc(OC)c(OC)c2)C(C)C)cc1OC,"activity change, negative = inhibition",[1]; at 17.2 µM (top of the series),inconclusive: -41% [inhibitor]
same,"activity change, negative = inhibition",[1]; at 38 µM (top of the series),inconclusive: -34.1% [inhibitor]
same,Potency,[2],"inconclusive: 10 µM [inhibitor, partial curve, poor fit]"
c1cc(NC2CC2)nc(-c2ccoc2)n1,"activity change, negative = inhibition",[1]; [12],inactive: -10.6%
same,Potency,[2],inactive
O=C(c1cccc(F)c1)N1CCC2(CC1)CCN(C(c1ccccc1)c1ccccc1)CC2,"activity change, negative = inhibition",[1]; [12],inconclusive: -43.5% [inhibitor]
same,Potency,[2],"inconclusive: 31.6 µM [inhibitor, single point]"
CN(C)Cc1ccccc1-c1nccc(Nc2ccc(F)cc2)n1,"activity change, negative = inhibition",[1]; [12],inactive: -13.9%
same,Potency,[4],"inconclusive: 5.01 µM [activator, single point]"
same,Potency,[10],inactive
same,Potency,[2],"inconclusive: 28.2 µM [inhibitor, single point]"
O=C(c1cccc(F)c1)N1CCC2(CCN(Cc3ccncc3)CC2)CC1,"activity change, negative = inhibition",[1]; [12],inconclusive: -60.7% [inhibitor]
same,Potency,[2],inactive
COc1ccccc1CNc1cc(-c2ccccc2CN(C)C)ncn1,"activity change, negative = inhibition",[1]; [12],inconclusive: -32.4% [inhibitor]
same,"activity, negative = inhibition",[6],inconclusive: 7.92% [activator]
same,Potency,[4],"inconclusive: 10 µM [rising, partial curve]"
same,Potency,[2],"inconclusive: 28.2 µM [inhibitor, single point]"
Cn1c(=O)c(-c2ccc(Cl)cc2)nc2cncnc21,"activity change, negative = inhibition",[1]; [12],inactive: -0.619%
same,Potency,[2],"inconclusive: 2.51 µM [inhibitor, full curve, poor fit]"
Cn1cccc1C(=O)N1CCC2(CC1)CN(c1ccccn1)C2,"activity change, negative = inhibition",[1]; [12],inconclusive: -62.8% [inhibitor]
same,Potency,[2],inactive
COCC(=O)N1CCC2(CC1)CN(Cc1nccs1)C2,"activity change, negative = inhibition",[1]; [12],inconclusive: 48.8% [activator]
same,"activity, negative = inhibition",[6],inconclusive: 15.4% [activator]
same,Potency,[11],inactive
same,Potency,[2],"inconclusive: 2.51 µM [inhibitor, partial curve, poor fit]"
